These results are taken from the supplement of paper PMC9588766.

Structures can show the parent of a compound that is named as a salt. ± gives the standard deviation of the averaged measurements. The full ranking holds about 2,000 compounds; the median of “cell viability relative to DMSO control (compound alone)” is about 0.98, and the lowest 2% start at about 0.23. The list shows a part of the results.

For this experiment, the system named is PDC-DUC18828. Put plainly: cell viability relative to DMSO control (compound alone) (fraction); PDC-DUC18828 is a patient-derived cholangiocarcinoma cell line; higher = less growth inhibition. The conditions noted are these: 1 µM; 72 h. The procedure:
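Selleck Bioactive library screen in the patient-derived FGFR2-G3BP2 fusion-positive ICC cell line PDC-DUC18828 (500 cells/well). Each compound was tested at 1 uM alone, in triplicate, for 72 h. Viability was read by CellTiter-Glo and normalised to plate DMSO controls.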
On to `CNCC[C@H](Oc1cccc2ccccc12)c1cccs1` [Duloxetine HCl], for which the cell viability amounted to 1.12 ± 0.028.
On to `C[C@@H](Oc1cc(-n2cnc3ccc(CN4CCN(C)CC4)cc32)sc1C(N)=O)c1ccccc1C(F)(F)F`, for which the cell viability worked out at 0.325 ± 0.015.
On to `CC1(COc2ccc3c(c2)ncn3-c2ccc3cccc(N4CCC(N)CC4)c3n2)COC1`, for which the cell viability amounted to 1.09 ± 0.064.
Under `COc1ccccc1-c1cc(Nc2cccc(CS(N)(=O)=O)c2)ncn1` stands 1 ± 0.031.
Under `COc1ccc([C@H]2CNC(=O)C2)cc1OC1CCCC1` [S- (+)-Rolipram] stands 1.08 ± 0.04.
Under `COc1cc(Cc2cnc(N)nc2N)cc(OC)c1OC` [Trimethoprim] stands 1.04 ± 0.07; under `COc1cc2c(cc1OC)CN(CCc1ccc(NC(=O)c3cc(OC)c(OC)cc3NC(=O)c3cnc4ccccc4c3)cc1)CC2` [Tariquidar], 1.08 ± 0.062; under `CC(=O)c1cc([N+](=O)[O-])c(Sc2cccc(Cl)c2Cl)s1`, 1.08 ± 0.025.
With `CS(=O)(=O)c1ccc(C2=C(c3ccccc3)C(=O)OC2)cc1` [Rofecoxib], the cell viability amounted to 0.934 ± 0.056.
Compound `Cn1c(=O)c2[nH]cnc2n(C)c1=O` [Aminophylline] yielded a cell viability of 1.03 ± 0.028.
As for `Cc1[nH]c(=O)c(C#N)cc1-c1ccncc1` [Milrinone], the cell viability turned out to be 1.06 ± 0.033.
Under `CC(C)[C@H](CO)Nc1nc(Nc2cccc(Cl)c2)c2ncn(C(C)C)c2n1` [Purvalanol A] stands 0.936 ± 0.023.
Under `Cc1ccnc2c1NC(=O)c1cccnc1N2C1CC1` [Nevirapine] stands 1.05 ± 0.012; under `CN(C)CCC=C1c2ccccc2CCc2ccccc21` [Amitriptyline HCl], 0.934 ± 0.056; under `FC(F)(F)c1ccc(CNc2ccc(Cc3c[nH]c4ncc(Cl)cc34)cn2)cn1` [Pexidartinib (PLX3397)], 0.951 ± 0.035.
In the case of `O=C(Nc1ccccc1)c1ccccc1O` [Salicylanilide], the cell viability turned out to be 1.08 ± 0.045.
As to `COc1cc(/C=C/C(=O)N2CCC=CC2=O)cc(OC)c1OC` [Piperlongumine], the cell viability was 0.834 ± 0.028.
Under `Cc1cccc(C)c1NC(=O)C1CCCCN1C` (stereo not drawn) [Mepivacaine HCl] stands 1.02 ± 0.019.
With `CCc1nc(-c2cccc(C)c2)c(-c2ccnc(NC(=O)c3ccccc3)c2)s1`, the cell viability was 0.946 ± 0.029.
In the case of `Cc1ncc([N+](=O)[O-])n1CC(O)CCl` (stereo not drawn) [Ornidazole], the cell viability is 0.979 ± 0.042.
Regarding `CN1C(C(=O)Nc2ccccn2)=C(O)c2sccc2S1(=O)=O` [Tenoxicam], the cell viability was found to be 0.944 ± 0.026.
In turn, `N=C(N)N` [Guanidine HCl] had a cell viability of 1.02 ± 0.022.
As to `Cc1c(C(N)=O)cc([N+](=O)[O-])cc1[N+](=O)[O-]` [Dinitolmide], the cell viability was 1.03 ± 0.06.
Under `NS(=O)(=O)c1cc(C(=O)O)c(NCc2ccco2)cc1Cl` [Furosemide] stands 1.04 ± 0.027; under `O=C(O)c1cc(=O)c2ccccc2o1` [Chromocarb], 0.918 ± 0.028.
Under `CCOc1cc([C@@H](CS(C)(=O)=O)N2C(=O)c3cccc(NC(C)=O)c3C2=O)ccc1OC` stands 1 ± 0.016; under `COc1cc(C(=O)NS(=O)(=O)c2ccccc2C)ccc1Cc1cn(C)c2ccc(NC(=O)OC3CCCC3)cc12` [Zafirlukast], 1.05 ± 0.028; under `CN[C@H]1CN(c2ccc3c(=O)c(C(=O)O)cn(-c4nccs4)c3n2)C[C@@H]1OC` [Voreloxin (SNS-595)], 0.735 ± 0.011.
Under `CC1=C(C(=O)OC(C)C)C(c2cccc([N+](=O)[O-])c2)C(C(=O)OC2CN(C(c3ccccc3)c3ccccc3)C2)=C(N)N1` (stereo not drawn) [Azelnidipine] stands 0.978 ± 0.034; under `Cc1cc(C2CCCCC2)n(O)c(=O)c1` [Ciclopirox ethanolamine], 0.587 ± 0.046.
Consider `Cc1cc(C2CCCCC2)n(O)c(=O)c1` [Ciclopirox], for which the cell viability amounted to 0.7 ± 0.0091.
Compound `CCc1cncnc1N1CCN(Cc2nc3ccc(C(F)(F)F)cc3[nH]2)CC1` came in with a cell viability of 0.959 ± 0.015.
Under `NCC(=O)Nc1ccc(-n2nc(C(F)(F)F)cc2-c2ccc3c(ccc4ccccc43)c2)cc1` stands 0.966 ± 0.037; under `COc1ccc(-c2nc3cc(C4=NNC(=O)CC4C)ccc3[nH]2)cc1` (stereo not drawn) [Pimobendan], 1.01 ± 0.031; under `CNS(=O)(=O)Cc1ccc2[nH]cc(CCN(C)C)c2c1` [Sumatriptan Succinate], 1.01 ± 0.0021.
In turn, `O=C(COc1ccc(Cl)cc1)NC1CCC(NC(=O)COc2ccc(Cl)cc2)CC1` (stereo not drawn) [ISRIB (trans-isomer)] had a cell viability of 1.11 ± 0.02.
Under `COc1cc2ncnc(Oc3cccc(NC(=O)Nc4cc(C(C)(C)C(F)(F)F)on4)c3)c2cc1OC` stands 1.06 ± 0.064; under `O=c1c(O)c(-c2ccc(O)c(O)c2)oc2cc(O)ccc12` [Fisetin], 0.994 ± 0.044; under `NS(=O)(=O)c1cc2c(cc1Cl)N=CNS2(=O)=O` [Chlorothiazide], 0.962 ± 0.014.
Regarding `COc1ccc(-c2cnc3c(-c4cccc5ncccc45)cnn3c2)cc1`, the cell viability was determined as 0.8803 ± 0.008.
In the case of `O=C(NCc1ccncc1)C12CC3CC(C1)CC(c1ccc(Cl)cc1)(C3)C2`, the cell viability turned out to be 0.951 ± 0.016.
Compound `CCOC(=O)[C@H](CCc1ccccc1)N[C@@H](C)C(=O)N1[C@H](C(=O)O)C[C@@H]2CCC[C@@H]21` [Ramipril] registered a cell viability of 0.923 ± 0.056.
Under `NC(=O)c1ncn([C@@H]2O[C@H](CO)[C@@H](O)[C@H]2O)n1` [Ribavirin] stands 1.024 ± 0.0053.
Under `Cc1ccc(S(=O)(=O)n2c(N)nc3ccccc32)cc1` [ML130 (Nodinitib-1)] stands 0.946 ± 0.021; under `CC[C@H]1OC(=O)[C@H](C)[C@@H](O[C@H]2C[C@@](C)(OC)[C@@H](O)[C@H](C)O2)[C@H](C)[C@@H](O[C@@H]2O[C@H](C)C[C@H](N(C)C)[C@H]2O)[C@](C)(OC)C[C@@H](C)C(=O)[C@H](C)[C@@H](O)[C@]1(C)O` [Clarithromycin], 1.04 ± 0.084.
Under `O=[N+]([O-])c1ccc2c(c1)S(=O)(=O)C=C2` [Stattic] stands 0.671 ± 0.038; under `CCCCCCCCC/C(=C\C1=C(C)C(=O)C(OC)=C(OC)C1=O)C(=O)O`, 1.01 ± 0.059.
With `CN(C)CC[C@H](CSc1ccccc1)Nc1ccc(S(=O)(=O)NC(=O)c2ccc(N3CCN(Cc4ccccc4-c4ccc(Cl)cc4)CC3)cc2)cc1[N+](=O)[O-]`, the cell viability is 0.829 ± 0.011.
Under `NC(=O)Cc1cccc(C(=O)c2ccccc2)c1N` [Nepafenac] stands 0.917 ± 0.026.
With `C[C@H]1COC2=C1C(=O)C(=O)c1c2ccc2c1CCCC2(C)C` [Cryptotanshinone], the cell viability worked out at 0.8422 ± 0.0054.
Under `Nc1ccccc1NC(=O)c1ccc(CNC(=O)OCc2cccnc2)cc1` [Entinostat (MS-275)] stands 1.07 ± 0.025; under `CCCCOc1c(C(=O)c2c(F)cc(C)cc2F)c[nH]c2nncc1-2`, 0.852 ± 0.0069.
Under `CC(C)C[C@@H]1NC(=O)[C@@H](C(C)C)NC(=O)[C@@H]2CCCN2C(=O)[C@@H](CC(=O)O)NC(=O)[C@@H](Cc2c[nH]c3ccccc23)NC1=O` stands 1.03 ± 0.033.
